Data as given in the supplement of paper PMC3334620.
Whole data set: some 33,000 sequences, median “E-score (-0.5 to 0.5)” near -0.016, cut for the highest 2% near 0.32. The list shows a part of the results.

biological target: T1, Stp1 (UniProt B3LFK1); experiment: PBM E-score (8-mer binding enrichment) (E-score (-0.5 to 0.5)); higher = stronger / more preferred TF binding; most listed sequences are background and not binding sites; settings: protein concentration: 200 nM; construct: GST-full length
T1 sequence: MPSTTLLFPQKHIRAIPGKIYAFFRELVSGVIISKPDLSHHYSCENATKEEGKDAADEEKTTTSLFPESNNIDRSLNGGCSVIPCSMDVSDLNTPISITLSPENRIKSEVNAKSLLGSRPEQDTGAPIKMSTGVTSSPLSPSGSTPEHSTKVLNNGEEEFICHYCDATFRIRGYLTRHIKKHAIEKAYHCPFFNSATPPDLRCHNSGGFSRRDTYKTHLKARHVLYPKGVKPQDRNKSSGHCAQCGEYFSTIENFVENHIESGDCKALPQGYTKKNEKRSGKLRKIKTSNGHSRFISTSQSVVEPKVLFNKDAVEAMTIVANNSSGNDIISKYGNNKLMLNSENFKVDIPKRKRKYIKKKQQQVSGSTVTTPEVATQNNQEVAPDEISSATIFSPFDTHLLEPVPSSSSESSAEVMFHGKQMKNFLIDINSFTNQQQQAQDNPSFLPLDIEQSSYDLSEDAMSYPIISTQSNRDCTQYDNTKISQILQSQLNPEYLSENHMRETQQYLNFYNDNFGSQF
Method in brief: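 Detection of bound protein used fluorescent anti-GST, with scans normalised by masliner. The proteins were GST-tagged yeast transcription factors applied at about 100-200 nM to universal all-10-mer Agilent arrays made double-stranded by primer extension. Each ungapped eight-base word, pooled with its reverse complement, was scored with an E-score from the Universal PBM Analysis Suite.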

Compared with ATACGGGC, ATACCGAA is higher in “PBM E-score” value: -0.0186 for the first, 0.0551 for the second.

First: ATTCTATG
Second: AGGATATG
The “PBM E-score” value of the first is higher: 0.194 for the first, 0.0335 for the second.

Going from TGAACAAA to ACGAGCCC, the “PBM E-score” value falls from 0.267 to -0.0928.

Compared with CAACTCAC, GCAGAATA is higher in “PBM E-score” value: -0.0952 for the first, 0.00751 for the second.

Compared with AGATTCCA, AGTACTAA is lower in “PBM E-score” value: 0.14 for the first, 0.0016 for the second.

Compared with AAGTTCCT, AGTCCGTC is higher in “PBM E-score” value: -0.117 for the first, -0.0184 for the second.

Going from AAGACACG to CGTGGTTA, the “PBM E-score” value falls from 0.234 to 0.0579.

Compared with CGAAAGCC, CCGCCTTA is higher in “PBM E-score” value: -0.0122 for the first, 0.201 for the second.

Going from ACAATGCA to CAGGTTGG, the “PBM E-score” value falls from 0.163 to -0.19.

Compared with CCGCACGG, ATGTTCAA is lower in “PBM E-score” value: 0.448 for the first, 0.131 for the second.

First: GAGGTATA
Second: TATATGAA
The “PBM E-score” value of the first is lower: -0.0508 for the first, 0.18 for the second.

Compared with ACTGTTGA, AGTATCTG is lower in “PBM E-score” value: -0.0391 for the first, -0.107 for the second.

Compared with ACGATGCA, ATAGTAGA is lower in “PBM E-score” value: 0.0353 for the first, -0.0811 for the second.

First: GAATACGC
Second: ACCGTCAA
The “PBM E-score” value of the first is lower: -0.0347 for the first, 0.0774 for the second.

Compared with CGTTCAGC, CCACCTCC is lower in “PBM E-score” value: 0.00756 for the first, -0.338 for the second.

Compared with ACTTCCGA, AACTTGGA is higher in “PBM E-score” value: -0.0873 for the first, 0.0205 for the second.

Compared with AGGCCCAC, AAGCCGAC is higher in “PBM E-score” value: -0.232 for the first, -0.11 for the second.

Compared with GAACATAA, CGTCATAG is lower in “PBM E-score” value: -0.0127 for the first, -0.0609 for the second.

Compared with TCACCGCA, CCAGCTGG is lower in “PBM E-score” value: -0.0824 for the first, -0.154 for the second.

First: GGGATGAC
Second: AGGGCGAC
The “PBM E-score” value of the first is lower: -0.275 for the first, 0.015 for the second.

Going from AACCGCGA to AGTAGTGC, the “PBM E-score” value falls from 0.174 to 0.133.

First: AGCGCGTG
Second: GCGGAGAC
The “PBM E-score” value of the first is higher: 0.0478 for the first, 0.00698 for the second.

First: ATGGCCGA
Second: GGCGGCAA
The “PBM E-score” value of the first is lower: 0.0135 for the first, 0.286 for the second.

First: GCCTAAAC
Second: CGGCCTGC
The “PBM E-score” value of the first is higher: -0.116 for the first, -0.125 for the second.

First: TCGGGTAA
Second: TGACACCA
The “PBM E-score” value of the first is higher: -0.0421 for the first, -0.131 for the second.

First: ATTCCACG
Second: GCGAAGAA
The “PBM E-score” value of the first is lower: -0.0103 for the first, 0.155 for the second.

Going from GTGTCCTA to GTGTCTGA, the “PBM E-score” value rises from -0.0136 to 0.0415.

Compared with CGGAAGCC, GCAACATA is higher in “PBM E-score” value: -0.0376 for the first, 0.147 for the second.

Going from AGTGGCGA to ATGAGGTA, the “PBM E-score” value falls from 0.178 to -0.146.

Compared with GACTAAGA, AAGACGTA is lower in “PBM E-score” value: 0.00203 for the first, -0.16 for the second.

Compared with AAGCGGAT, CGGTTCAC is lower in “PBM E-score” value: -0.0611 for the first, -0.216 for the second.

Going from CTAAATTC to TCCGCACA, the “PBM E-score” value rises from -0.0171 to 0.188.

Going from ATAAAAAA to CGTGGCGA, the “PBM E-score” value rises from 0.206 to 0.219.

Compared with CACTCCTA, GGGTACTA is higher in “PBM E-score” value: -0.104 for the first, 0.0651 for the second.

First: AACGTTAG
Second: GTTCGGCA
The “PBM E-score” value of the first is lower: 0.0532 for the first, 0.226 for the second.

First: CGATCCAG
Second: CTTCTAAA
The “PBM E-score” value of the first is lower: 0.0325 for the first, 0.168 for the second.

Going from TAGACTGA to ATCAGTTA, the “PBM E-score” value rises from -0.112 to 0.21.

Going from CTTTTCTA to ACGATGAT, the “PBM E-score” value falls from -0.169 to -0.188.

Compared with AGGTGGAT, TAATGGAA is higher in “PBM E-score” value: -0.18 for the first, 0.118 for the second.

First: CGAATCAC
Second: AAGACCCC
The “PBM E-score” value of the first is higher: -0.026 for the first, -0.252 for the second.

Going from AAAATACC to ACGCTGAG, the “PBM E-score” value falls from 0.179 to 0.0067.

First: ACTCACCA
Second: CTAAGAGC
The “PBM E-score” value of the first is lower: -0.21 for the first, -0.0921 for the second.

First: AACCTCGA
Second: AGAAGTGC
The “PBM E-score” value of the first is higher: -0.0117 for the first, -0.069 for the second.

Compared with AATCAACC, AGCAAGCT is lower in “PBM E-score” value: -0.292 for the first, -0.296 for the second.

First: ATTTGAGA
Second: GTGTTCTA
The “PBM E-score” value of the first is lower: -0.00713 for the first, 0.156 for the second.

Going from ACGGCGTA to AAGGAACC, the “PBM E-score” value falls from 0.448 to 0.111.

First: AAAAGTAT
Second: GTTATGTA
The “PBM E-score” value of the first is higher: 0.0476 for the first, -0.0678 for the second.

First: AGCACCCT
Second: CCTGTCAA
The “PBM E-score” value of the first is lower: -0.256 for the first, 0.0137 for the second.

First: ACTCAGGC
Second: AGCGCCAG
The “PBM E-score” value of the first is lower: -0.121 for the first, 0.0101 for the second.

First: CTGAATGC
Second: ATCCATTG
The “PBM E-score” value of the first is lower: -0.0658 for the first, 0.0495 for the second.

First: GGCATGGA
Second: CGGGAGAC
The “PBM E-score” value of the first is higher: 0.169 for the first, -0.242 for the second.

Compared with GCTCGGGA, AACATATC is higher in “PBM E-score” value: -0.174 for the first, 0.142 for the second.

Going from ATCCCGTG to AGGAGCTG, the “PBM E-score” value falls from 0.186 to -0.222.

Compared with AAGGGCGA, CACACTCC is lower in “PBM E-score” value: -0.108 for the first, -0.217 for the second.

Compared with ACAGGGCG, TCCAGGGA is lower in “PBM E-score” value: 0.351 for the first, -0.197 for the second.

First: CCATGCCA
Second: CAAGGTCA
The “PBM E-score” value of the first is higher: 0.148 for the first, -0.171 for the second.

Compared with ATTCTCGC, AGTGAAAG is higher in “PBM E-score” value: -0.133 for the first, 0.0498 for the second.

First: AAGTAATC
Second: ATGTGTGA
The “PBM E-score” value of the first is higher: 0.164 for the first, -0.132 for the second.

First: ATCTTTCC
Second: GATACGTA
The “PBM E-score” value of the first is lower: -0.119 for the first, -0.0548 for the second.

First: CCCGTTTC
Second: ATCTTGGC
The “PBM E-score” value of the first is higher: 0.0615 for the first, -0.209 for the second.

Compared with GAACAGTC, AGAAAGAG is lower in “PBM E-score” value: -0.201 for the first, -0.217 for the second.

First: AGGTGCCC
Second: CAGGATAG
The “PBM E-score” value of the first is lower: -0.0256 for the first, 0.111 for the second.

Going from ATGAACAT to CAAACTAG, the “PBM E-score” value falls from 0.105 to -0.107.

Compared with CATTACCC, CGTGATAG is higher in “PBM E-score” value: -0.171 for the first, 0.0581 for the second.

Compared with CGGTTACA, CTAAACTA is lower in “PBM E-score” value: 0.0722 for the first, -0.0468 for the second.

First: CATCGCCC
Second: CCAGACAC
The “PBM E-score” value of the first is higher: -0.0878 for the first, -0.209 for the second.

First: CTCGGTCC
Second: CGCCCAAG
The “PBM E-score” value of the first is higher: -0.164 for the first, -0.172 for the second.

Going from TCGAATAA to CACTCTCG, the “PBM E-score” value falls from 0.0883 to -0.0668.

Compared with AGGTAACG, AAGGGCGT is higher in “PBM E-score” value: -0.213 for the first, 0.0591 for the second.

First: CATTTTCG
Second: ATTTTAAG
The “PBM E-score” value of the first is lower: 0.0976 for the first, 0.19 for the second.

Compared with ACAGGCTA, TGATTAAA is higher in “PBM E-score” value: -0.135 for the first, 0.145 for the second.

Going from ACCGAGAT to GCTAGACA, the “PBM E-score” value rises from -0.0374 to -0.0112.

Going from CCTGCGAG to GGATAGAA, the “PBM E-score” value rises from -0.0538 to 0.226.

Compared with CTCCTGAA, AACCGAAG is lower in “PBM E-score” value: 0.0691 for the first, -0.0463 for the second.

First: AGACGTAA
Second: AAGATACC
The “PBM E-score” value of the first is lower: -0.0891 for the first, -0.0422 for the second.

First: CGGCTGTA
Second: GCCCTGCA
The “PBM E-score” value of the first is higher: 0.193 for the first, 0.0324 for the second.

Compared with GGGCCTAA, CGAGTTCA is higher in “PBM E-score” value: -0.212 for the first, -0.0977 for the second.

Going from AAGGATAC to CCACGATA, the “PBM E-score” value rises from -0.0924 to 0.034.

Compared with CCTTTACA, ACTTCGCC is higher in “PBM E-score” value: 0.0991 for the first, 0.173 for the second.

Going from ATGTCGTC to AAGGGTTC, the “PBM E-score” value rises from -0.282 to -0.128.

Going from ACTTATTG to ATTATGTG, the “PBM E-score” value rises from -0.00914 to 0.134.

Going from ACGACCGG to AAACTGAA, the “PBM E-score” value rises from -0.263 to 0.0305.

Compared with AACAGCCA, CTCTAATA is higher in “PBM E-score” value: 0.124 for the first, 0.145 for the second.

First: ACCTCGTG
Second: GCACTGTA
The “PBM E-score” value of the first is lower: 0.00694 for the first, 0.0576 for the second.

Going from CTACATCA to AGGTGATG, the “PBM E-score” value falls from -0.0897 to -0.25.

Going from GAAAGGAA to TAGTATCA, the “PBM E-score” value rises from 0.0927 to 0.284.
